Reference: PubChem BioAssay AID1745853 (National Center for Advancing Translational Sciences (NCATS), 2022)
Values joined by “and” are separate entries in the source; they are usually repeats but may differ in a detail not shown here. Equal values may be shown once. Some of the results follow. Shown are side measurements of this screen, not its main read-out; they come without a call.

Key:
Experiment in all cases: Primary Screen for Target Class Profiling of Small Molecule Inhibitors of Methyltransferases
[1] = molecular target: Glycine N-methyltransferase (Homo sapiens) (UniProt Q14749); conditions: purified enzyme, MTase-Glo SAH luminescence; measured here: GNMT inhibition; at 40 µM; stronger effect = lower value
How it was run: (§1)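 Each enzyme was reacted with SAM and its substrate, with compounds tested once at 40 uM; SAH formed was read by MTase-Glo luminescence.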

[2] = molecular target: Guanidinoacetate N-methyltransferase (Homo sapiens) (UniProt Q14353); conditions: purified enzyme, MTase-Glo SAH luminescence; measured here: GAMT inhibition; at 40 µM; stronger effect = lower value
How it was run: as §1

[3] = molecular target: Histamine N-methyltransferase (Homo sapiens) (UniProt P50135); conditions: purified enzyme, MTase-Glo SAH luminescence; measured here: HNMT inhibition; at 40 µM; stronger effect = lower value
How it was run: as §1

[4] = molecular target: Nicotinamide N-methyltransferase (Homo sapiens) (UniProt P40261); conditions: purified enzyme, MTase-Glo SAH luminescence; measured here: NNMT inhibition; at 40 µM; stronger effect = lower value
How it was run: as §1

[5] = molecular target: Phenylethanolamine N-methyltransferase (Homo sapiens) (UniProt P11086); conditions: purified enzyme, MTase-Glo SAH luminescence; measured here: PNMT inhibition; at 40 µM; stronger effect = lower value
How it was run: as §1
% is scaled to controls: 0 for no effect and ±100 for the full control effect.

| Compound | activity change, negative = inhibition [1] | activity change, negative = inhibition [2] | activity change, negative = inhibition [3] | activity change, negative = inhibition [4] | activity change, negative = inhibition [5] |
| --- | --- | --- | --- | --- | --- |
| CC1=C[C@@H](CNS(C)(=O)=O)[C@H](C(C)C)C[C@H]1CC(=O)Nc1ccccn1 | -11.3% | -13.5% | -4.88% | -16.2% | -13.3% |
| CC(C)=CC/C=C(\C)[C@H]1CC[C@]2(C)[C@@H]1[C@H](O)C[C@@H]1[C@@]3(C)CC[C@H](O)C(C)(C)[C@@H]3[C@@H](O[C@@H]3O[C@H](CO)[C@@H](O)[C@H](O)[C@H]3O)C[C@]12C | 0.177% | 7.64% | -2.62% | -9.54% | -2.51% |
| O=C(CCc1nnc2n(Cc3ccccc3)c(=O)c3ccccc3n12)NCc1ccc(F)cc1 | -2.43% | 0% | 1.74% | 10.8% | -0.853% |
| CN(CC(=O)N1CCOCC1)S(=O)(=O)c1ccc2[nH]c3c(c2c1)CCCC3 | 8.1% | 4.63% | 12.5% | 6.34% | 8.38% |
| CN(CCNc1nc(CCN)nc2ccccc12)S(C)(=O)=O | -10.1% | -12.3% | -8.48% | -16.6% | -12.2% |
| CCCn1c(=O)c2ccc(C(=O)NC(C)CC)cc2n2c(=O)n(CC(=O)NCc3ccc(C)cc3)nc12 (stereo not drawn) | 2.08% | 1.95% | 6.73% | -1.45% | -0.619% |
| O=C(NCCc1nc2c(s1)CCCC2)C1NCCc2[nH]cnc21 (stereo not drawn) | -2.26% | -8.89% | -3.99% | -10.9% | -20.4% |
| Brc1c(Br)c(Br)c2n[nH]nc2c1Br | -86.9% | -58.8% and -58% | -71.6% | -69.9% and -74.7% | -78.2% and -72.4% |
| Cc1cc2c(cc3n2CC(C)(C(=O)NC2CCCCCC2)N(Cc2ccccc2Cl)C3=O)o1 (stereo not drawn) | -7.65% | -1.96% | -17% | -12.5% | -14.4% |
| Cc1n[nH]c(C)c1C(N)C(=O)N(Cc1cccnc1)Cc1cccnc1 (stereo not drawn) | -0.662% | 0.54% | 0.152% | 3.33% | -25% |
| CC(C)[C@H](N)C(=O)OCCOCn1cnc2c(=O)[nH]c(N)nc21 | – | -10.2% | – | -18.2% | -9.07% |
| CN(NC(=O)CC(=O)NN(C)C(=S)c1ccccc1)C(=S)c1ccccc1 | 2.9% | 4.76% | 1.02% | -17.1% | -11.6% |
| COCCCN1C(=O)c2cc(-c3ccccc3)nn2CC1(C)C(=O)NCc1ccccc1OC (stereo not drawn) | 2.8% | 2.42% | 6.32% | 5.06% | 2.09% |
| Nc1nc2c(nc(Br)n2[C@@H]2O[C@@H]3COP(=O)(O)O[C@H]3[C@H]2O)c(=O)[nH]1 | -0.38% | -0.569% | 6.5% | -9.49% | -2.82% |
